Experiment [1] relates to SUDHL6 venetoclax-resistant. Kind of experiment: estimated IC50 (cell viability); higher = less potent.
Another experiment concerns SUDHL6 parental. The experiment is described as above.

Structures can show the parent of a compound that is named as a salt. Most values come without repeats; read them as rough.
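Note: compound screen comparing venetoclax-resistant SUDHL6, derived by months of escalating venetoclax exposure, with its matched parental line, IC50 from one-site nonlinear dose–response fit, geometric mean for duplicated compounds.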

As to `C=C1C(=O)O[C@H]2[C@H]1CC/C(C)=C/CC[C@@]1(C)O[C@@H]21` [(-)-Parthenolide], the “estimated IC50” value in experiment [1] was 6.1 µM; in the experiment with SUDHL6 parental, greater than 10 µM.
With `FC(F)(F)Oc1ccc2nc(-c3ccc(OCCOCCOc4ccc(-c5nc6ccc(OC(F)(F)F)cc6[nH]5)nc4)cn3)[nH]c2c1` [AI-10-49], the “estimated IC50” value in experiment [1] was 2.76 µM; in the experiment with SUDHL6 parental, 4.17 µM.
For `C[C@H](Nc1ncnc2[nH]cnc12)c1cc2ccc(F)cc2nc1-c1ccccn1` [AMG319], in that order: 5.87 µM and greater than 10 µM.
For `c1cc(Nc2cc(C3CC3)[nH]n2)nc(Nc2ccc3nc[nH]c3c2)n1` [APY29], in that order: 0.27 µM and 0.58 µM.
`O=C(c1ccc(Oc2ccccc2)cc1Cl)c1c[nH]c2ncnc(N[C@@H]3CC[C@@H](CO)OC3)c12` [ARQ 531]: the “estimated IC50” value in experiment [1] was 2.19 µM; in the experiment on SUDHL6 parental, 3.98 µM.
For `O=C(NC1CCNCC1)c1n[nH]cc1NC(=O)c1c(Cl)cccc1Cl` [AT7519], in that order: 3.9 µM and 6.7 µM.
As for `O=C(Nc1c[nH]nc1-c1nc2ccc(CN3CCOCC3)cc2[nH]1)NC1CC1` [AT9283], the results for the “estimated IC50” value (in experiment [1]; in the experiment with SUDHL6 parental) were 1.94 µM and 3.93 µM, respectively.
Consider `C=CC(=O)Nc1cc(Nc2nccc(-c3c[nH]c4ccccc34)n2)c(OC)cc1N(C)CCN(C)C` [AZ5104], for which the figures for the “estimated IC50” value (in experiment [1]; with SUDHL6 parental) were 3.42 µM and 7.28 µM, respectively.
`Cc1cc(Nc2nc(N[C@@H](C)c3ccc(F)cc3)c(C#N)cc2F)n[nH]1` [AZ 960]: the results for the “estimated IC50” value (in experiment [1]; in the experiment on SUDHL6 parental) were 1.06 µM and greater than 10 µM, respectively.
As for `Cc1ncc(-c2ccnc(Nc3ccc(S(C)(=O)=O)cc3)n2)n1C(C)C` [AZD5438], the “estimated IC50” value in experiment [1] is 3.9 µM; with SUDHL6 parental it was 6.2 µM.
As for `Cc1cc([C@@H](C)Nc2ccccc2C(=O)O)c2nc(N3CCOCC3)cc(=O)n2c1` [AZD6482], the “estimated IC50” value was 2.01 µM in experiment [1] and greater than 10 µM in the experiment on SUDHL6 parental.
Take `NC(=O)Nc1cc(-c2cccc(F)c2)sc1C(=O)N[C@H]1CCCNC1` [AZD7762]: the “estimated IC50” value was 0.3 µM in experiment [1] and 0.6 µM in the experiment on SUDHL6 parental.
As for `C[C@@H](Nc1cc(F)cc(F)c1)c1cc(C(=O)N(C)C)cc2c(=O)cc(N3CCOCC3)oc12` [AZD8186], the “estimated IC50” value was 0.8 µM in experiment [1] and 4.6 µM in the experiment with SUDHL6 parental.
In the case of `CCn1nc(C2CCN(C(=O)CCO)CC2)nc1-c1cnc(N)c(-c2nnc(C(C)(C)C)o2)n1` [AZD8835], the “estimated IC50” value in experiment [1] is 2.86 µM; in the experiment with SUDHL6 parental, greater than 10 µM.
For `C=CCn1c(=O)c2cnc(Nc3ccc(N4CCN(C)CC4)cc3)nc2n1-c1cccc(C(C)(C)O)n1` [Adavosertib ?MK-1775?], in that order: 3.6 µM and 5.71 µM.
Regarding `CN(C)C/C=C/C(=O)Nc1cc2c(Nc3ccc(F)c(Cl)c3)ncnc2cc1O[C@H]1CCOC1` [Afatinib (BIBW2992)], the “estimated IC50” value in experiment [1] was 1.92 µM; in the experiment on SUDHL6 parental, 7.88 µM.
For `Cc1noc(C)c1-c1cc(C(O)(c2ccccn2)c2ccccn2)c2nc(C3CC3)[nH]c2c1` [Alobresib (GS-5829)], the results for the “estimated IC50” value (in experiment [1]; in the experiment with SUDHL6 parental) were 0.18 µM and 0.39 µM, respectively.
Regarding `Cc1nc(NC(=O)N2CCC[C@H]2C(N)=O)sc1-c1ccnc(C(C)(C)C(F)(F)F)c1` [Alpelisib (BYL719)], the “estimated IC50” value in experiment [1] was 5.48 µM; in the experiment with SUDHL6 parental, greater than 10 µM.
For `COc1cc(NS(C)(=O)=O)ccc1Nc1c2ccccc2nc2ccccc12` [Amsacrine hydrochloride], in that order: 3.74 µM and 7.03 µM.
For `COc1cc2c(Oc3ccc4[nH]c(C)cc4c3F)ccnc2cc1OCC1(N)CC1` [Anlotinib (AL3818) dihydrochloride], in that order: 4.26 µM and 7.14 µM.

The values above are taken from the supplement of paper PMC11171410.
